The text below walks through data of publication PMC4336329 (PLoS ONE, 2015).

The campaign covered roughly 310,000 compounds. About 2,200 (0.71%) showed an effect of 50% or more. Effects have a minus sign here. The list shows a part of the results.

human ether-à-go-go-related gene (hERG) potassium channel, sequence (Q12809 whole entry, looked up): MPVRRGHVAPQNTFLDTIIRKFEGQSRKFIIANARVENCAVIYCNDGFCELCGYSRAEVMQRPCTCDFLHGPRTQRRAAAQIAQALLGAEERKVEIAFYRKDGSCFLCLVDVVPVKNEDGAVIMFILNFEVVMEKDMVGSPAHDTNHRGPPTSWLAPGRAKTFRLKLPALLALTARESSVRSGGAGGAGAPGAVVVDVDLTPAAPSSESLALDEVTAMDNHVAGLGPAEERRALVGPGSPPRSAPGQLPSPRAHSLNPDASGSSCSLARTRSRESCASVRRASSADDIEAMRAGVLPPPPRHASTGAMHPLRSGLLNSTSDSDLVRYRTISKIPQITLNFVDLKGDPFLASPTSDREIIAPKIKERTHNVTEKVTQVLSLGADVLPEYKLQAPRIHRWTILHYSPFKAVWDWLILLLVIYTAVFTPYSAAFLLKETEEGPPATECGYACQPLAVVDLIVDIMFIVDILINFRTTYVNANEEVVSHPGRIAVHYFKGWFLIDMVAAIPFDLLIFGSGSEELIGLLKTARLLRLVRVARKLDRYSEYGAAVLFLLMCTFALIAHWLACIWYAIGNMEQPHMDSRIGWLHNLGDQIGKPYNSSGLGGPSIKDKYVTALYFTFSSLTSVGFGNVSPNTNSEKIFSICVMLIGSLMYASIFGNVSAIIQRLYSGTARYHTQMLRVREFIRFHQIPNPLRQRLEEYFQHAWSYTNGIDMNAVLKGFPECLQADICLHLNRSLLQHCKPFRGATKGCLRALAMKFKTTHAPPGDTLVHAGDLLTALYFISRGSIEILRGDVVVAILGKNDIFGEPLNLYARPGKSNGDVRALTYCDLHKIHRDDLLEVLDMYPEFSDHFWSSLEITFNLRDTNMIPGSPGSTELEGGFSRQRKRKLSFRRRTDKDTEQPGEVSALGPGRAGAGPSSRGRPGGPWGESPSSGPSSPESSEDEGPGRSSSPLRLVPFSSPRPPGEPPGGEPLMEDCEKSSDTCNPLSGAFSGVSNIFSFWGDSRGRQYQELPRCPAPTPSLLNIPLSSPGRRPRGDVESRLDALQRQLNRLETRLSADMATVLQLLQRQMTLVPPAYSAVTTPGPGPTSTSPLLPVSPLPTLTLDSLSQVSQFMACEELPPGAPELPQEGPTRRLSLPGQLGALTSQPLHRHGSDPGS

The experiment addresses human ether-à-go-go-related gene (hERG) potassium channel (human, UniProt Q12809). Nature of the experiment: primary screen, population patch clamp on CHO cells stably expressing hERG.
For the compound `COC(=O)c1ccc(NC(=O)c2cc3sccc3n2C)cc1`, the “hERG current change (%, negative = inhibition) at 1uM” value was found to be 5.86%. As for `O=C(C1CCC1)N1CCc2cc(S(=O)(=O)N3CCCCC3)ccc21`, the figure is -2.01%; as for `COc1ccc([C@H]2CC(=O)C=C(c3cccc(Cl)c3O)C2)cc1OC`, 9%. Under `CCn1c(CCCc2ccc(OC)c(C)c2)n[nH]c1=S` stands 13.7%; under `Cc1ccc(N2C(=O)C3C4C=CC(CC4)C3C2=O)cc1Cl` (stereo not drawn), 16.3%; under `CC(C)c1onc(C(=O)N2CCC3(CC2)OCCO3)c1[N+](=O)[O-]`, 3.48%. Take `CC(=NCCCn1ccnc1)c1c(O)n(C2CCCCC2)c(=O)[nH]c1=O`: the “hERG current change (%, negative = inhibition) at 1uM” value is 7.29%. Under `COc1ccccc1-c1cc(C(F)(F)F)nc(S(C)(=O)=O)n1` stands 9.42%; under `COc1ccc(S(=O)(=O)N2CCC(NC(=O)C3CCCCC3)CC2)cc1`, 11.4%. For the compound `Cc1cc(SCC(N)=O)nc(SCC(=O)c2ccccc2)n1`, the “hERG current change (%, negative = inhibition) at 1uM” value is -5.09%. `Cc1cc(CNC(=O)c2ccc3nc(Cc4ccccc4F)oc3c2)nn1C`: the “hERG current change (%, negative = inhibition) at 1uM” value came to 13.2%.

For `COc1ccc(C(=O)NCCC(C)C)cc1S(=O)(=O)N1CCOCC1`, the “hERG current change (%, negative = inhibition) at 1uM” value was determined as 2.3%. For the compound `NS(=O)(=O)c1ccc(CCNC(=O)CSc2ccc3ccccc3c2)cc1`, the “hERG current change (%, negative = inhibition) at 1uM” value was determined as 10.7%. As for `Clc1ccc(Oc2nnnn2-c2ccccc2)cc1`, the “hERG current change (%, negative = inhibition) at 1uM” value is listed as -1.29%. Under `Cc1cccc(NS(=O)(=O)c2cc(C(=O)NCCC3=CCCCC3)ccc2Cl)c1` stands 7.03%.

`COc1ccc(-n2nc(C(=O)NCC(=O)N3CCCCC3)c3ccccc3c2=O)cc1`: the “hERG current change (%, negative = inhibition) at 1uM” value was found to be 9.59%. As for `COc1ccc(NC(=O)CSc2nnc(NC(=O)c3ccccc3C(=O)O)s2)cc1`, the figure is 5.47%; as for `CCCN(CCC)CCCNC(=O)c1cc2c(=O)[nH]c3ccccc3c2n1C`, 10.7%. As to `N=C1C(c2nc3ccccc3s2)=C(O)CN1NC(=O)c1ccco1`, the “hERG current change (%, negative = inhibition) at 1uM” value was 0.934%. As for `CC(C)CC(=O)Nc1ccccc1N1CCOCC1`, the figure is 8.95%; as for `c1cnc(NC2C3CC4CC(C3)CC2C4)nc1` (stereo not drawn), 6.75%; as for `CNC(=O)c1csc(-c2ccc(C)cc2)n1`, 11.7%. As to `COc1ccc(C(=O)CSc2nnc(CNC(=O)c3ccc(OC)cc3)n2C)cc1`, the “hERG current change (%, negative = inhibition) at 1uM” value was 11.5%. In the case of `CCOc1ccccc1NC(=O)NC(=O)N(C)S(C)(=O)=O`, the “hERG current change (%, negative = inhibition) at 1uM” value was determined as 2.02%. As for `O=S(=O)(Nc1ncccn1)c1ccccc1`, the figure is 7.28%; as for `CCOC(=O)c1c(NC(=O)CSc2nnc(-c3ccccc3)o2)sc(C(C)=O)c1C`, 9.59%.

Regarding `O=C(Nc1c2c(nn1-c1ccccc1)CS(=O)(=O)C2)c1ccccc1C(F)(F)F`, the “hERG current change (%, negative = inhibition) at 1uM” value was 11.4%.

Take `O=C(O)CCc1nc(-c2cccs2)no1`: the “hERG current change (%, negative = inhibition) at 1uM” value amounted to 11.6%. For `COc1ccc(CNC(=O)c2ccc(Cn3cc(Br)cn3)o2)cc1`, the “hERG current change (%, negative = inhibition) at 1uM” value stood at 13.9%. As for `O=c1[nH]c(=O)n(C2CCCO2)cc1F` (stereo not drawn), the figure is 2.04%; as for `C/C(=C\c1ccccc1)C(=O)N1CCN(c2cccc(C(F)(F)F)c2)CC1`, 2.79%; as for `CCCNC(=O)c1onc(CSc2ccc(Cl)cc2)c1C(=O)NCC1CC1`, 2.65%. As for `COc1ccc(NS(=O)(=O)c2ccc(O)c(C(=O)OCC(=O)N3CC(C)OC(C)C3)c2)cc1` (stereo not drawn), the figure is 12.3%.

Regarding `COc1ccc(CNC(=O)CCS(=O)(=O)c2ccc3c(c2)NC(=O)C(C)S3)cc1` (stereo not drawn), the “hERG current change (%, negative = inhibition) at 1uM” value is on record as 14.6%.

In the case of `CCOc1ccc(-c2csc(NC(=O)C3CCCO3)n2)cc1` (stereo not drawn), the “hERG current change (%, negative = inhibition) at 1uM” value was 5.89%. Take `O=C(NC1CCCCC1)N1CCN(Cc2nc3ccccc3c(=O)[nH]2)CC1`: the “hERG current change (%, negative = inhibition) at 1uM” value is given as -1.68%. As for `Cc1cccc(CN2CCC(C(=O)Nc3cccc(-c4cscn4)c3)CC2)n1`, the figure is -4.56%; as for `O=C(C1CCC(CNS(=O)(=O)c2cccs2)CC1)N1CCN(c2ccc(Cl)cc2)CC1` (stereo not drawn), -15.6%. For `CC(O)CNc1nc(Cl)c(C#N)s1` (stereo not drawn), the “hERG current change (%, negative = inhibition) at 1uM” value amounted to 2.67%. As for `CC(=O)Nc1ccc(NC(=O)COC(=O)[C@@H](NC(=O)c2ccc(F)cc2)C(C)C)cc1`, the “hERG current change (%, negative = inhibition) at 1uM” value was 13.6%. For `COc1ccc(S(=O)(=O)NC(C)C(=O)Nc2cccc([N+](=O)[O-])c2)cc1` (stereo not drawn), the “hERG current change (%, negative = inhibition) at 1uM” value is recorded as 13.4%.

As for `CCOC(=O)CC(=O)CSc1nc(-c2ccc3c(c2)OCO3)cc(C(F)(F)F)c1C#N`, the “hERG current change (%, negative = inhibition) at 1uM” value was found to be 6.83%. As for `CN(C)S(=O)(=O)c1ccc(Cl)c(C(=O)OCC(=O)NNC(=O)c2cccs2)c1`, the figure is 5.6%; as for `CC(C)CCNC(=O)C1CCN(C(=O)N(C)C)CC1`, 13.8%. On to `CCOc1ccc2[nH]c(=O)c(C(c3nnnn3CCOC)N3CCOCC3)cc2c1` (stereo not drawn), for which the “hERG current change (%, negative = inhibition) at 1uM” value came out at 6.89%. Under `CC(C)N1CCc2c(sc(NC(=O)c3ccc(C(=O)c4ccccc4)cc3)c2C(N)=O)C1.Cl` stands 4.9%; under `O=C(Nc1c(S(=O)(=O)c2ccc(Cl)cc2)csc1Br)c1ccccc1Cl`, 7.8%; under `Cc1ccc(/C=N/Nc2ccc(Cl)nn2)cc1`, 10.9%.

Regarding `CCOc1ccc(OCCC(=O)OCC(=O)Nc2cc(C)nn2-c2ccccc2)cc1`, the “hERG current change (%, negative = inhibition) at 1uM” value is -3.55%. Under `O=[N+]([O-])c1cccc(-c2ccc(CN3CCCCC3)o2)c1` stands -1.72%; under `CCn1nccc1C(=O)Nc1ccc(Cl)c(Cl)c1`, -13.4%; under `Cc1cccc(N2CCN(c3nc4ccccc4n4cnnc34)CC2)c1C`, 18.6%. As for `Cc1cccc(NC(=O)C2CCCN(S(=O)(=O)c3ccc(-n4cnnn4)cc3)C2)c1` (stereo not drawn), the figure is -21.9%; as for `CCS(=O)(=O)NCC(c1ccco1)N1CCN(c2ccc(F)cc2)CC1` (stereo not drawn), -1.32%. Under `Cl.OC(COc1ccc(Br)cc1)CN1CCCC1` (stereo not drawn) stands 5.23%; under `CCO[C@@H]1OC(C(=O)O)=C[C@H](c2cn(C(C)=O)c3ccccc23)[C@H]1CCCO`, 15.9%.

Take `CC(C)(CO)C(O)C(=O)NCCC#N` (stereo not drawn): the “hERG current change (%, negative = inhibition) at 1uM” value was 4.85%.
